Legend:
[1] = biological target: T1, HIS-ATM fragment 7 (F7, 1239–1770 aa) (UniProt Q13315 1239-1770); assay: pull-down; GST pull-down: equal amounts of HIS-fusion protein incubated with GST-fusion proteins (from E. coli) in TEN buffer (10 mM Tris-HCl pH 8.0, 1 mM EDTA, 100 mM NaCl), 4 h, 4 °C; immunoblot; for H1.2-MRE11 also with benzonase; settings: both partners purified
T1 construct: also called HIS-ATM F7; source: E. coli BL21, purified (HIS agarose beads)
T1 sequence (looked up): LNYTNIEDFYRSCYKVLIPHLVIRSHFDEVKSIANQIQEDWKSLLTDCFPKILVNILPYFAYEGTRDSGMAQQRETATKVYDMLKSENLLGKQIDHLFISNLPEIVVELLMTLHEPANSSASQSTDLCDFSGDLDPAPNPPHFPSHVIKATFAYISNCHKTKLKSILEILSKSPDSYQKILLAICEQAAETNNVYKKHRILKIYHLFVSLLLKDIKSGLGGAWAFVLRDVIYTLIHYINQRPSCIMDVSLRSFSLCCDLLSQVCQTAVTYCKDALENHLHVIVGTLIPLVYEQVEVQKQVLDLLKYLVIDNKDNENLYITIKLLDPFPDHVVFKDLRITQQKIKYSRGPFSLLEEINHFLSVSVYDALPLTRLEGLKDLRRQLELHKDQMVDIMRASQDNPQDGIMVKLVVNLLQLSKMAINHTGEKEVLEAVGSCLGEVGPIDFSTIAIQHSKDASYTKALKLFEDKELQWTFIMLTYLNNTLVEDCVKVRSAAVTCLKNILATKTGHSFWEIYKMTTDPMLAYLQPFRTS

FLAG-ATM (full-length) = biological target: T2, FLAG-ATM (full-length) (UniProt Q13315 1-3056); assay: pull-down; FLAG-ATM immunoprecipitated from HEK293T cells on FLAG-conjugated M2 beads, incubated with or without recombinant HIS-H1.2 in kinase buffer, then with recombinant HIS-H2AX and GST-p53 (1–99) without ATP; eluted, immunoblot; settings: both partners purified
T2 construct: ATM, full-length FLAG-ATM expression construct purchased from Addgene; also called purified ATM protein

Chain of FLAG-ATM (full-length) (Q13315 whole entry, the tested form may be a part): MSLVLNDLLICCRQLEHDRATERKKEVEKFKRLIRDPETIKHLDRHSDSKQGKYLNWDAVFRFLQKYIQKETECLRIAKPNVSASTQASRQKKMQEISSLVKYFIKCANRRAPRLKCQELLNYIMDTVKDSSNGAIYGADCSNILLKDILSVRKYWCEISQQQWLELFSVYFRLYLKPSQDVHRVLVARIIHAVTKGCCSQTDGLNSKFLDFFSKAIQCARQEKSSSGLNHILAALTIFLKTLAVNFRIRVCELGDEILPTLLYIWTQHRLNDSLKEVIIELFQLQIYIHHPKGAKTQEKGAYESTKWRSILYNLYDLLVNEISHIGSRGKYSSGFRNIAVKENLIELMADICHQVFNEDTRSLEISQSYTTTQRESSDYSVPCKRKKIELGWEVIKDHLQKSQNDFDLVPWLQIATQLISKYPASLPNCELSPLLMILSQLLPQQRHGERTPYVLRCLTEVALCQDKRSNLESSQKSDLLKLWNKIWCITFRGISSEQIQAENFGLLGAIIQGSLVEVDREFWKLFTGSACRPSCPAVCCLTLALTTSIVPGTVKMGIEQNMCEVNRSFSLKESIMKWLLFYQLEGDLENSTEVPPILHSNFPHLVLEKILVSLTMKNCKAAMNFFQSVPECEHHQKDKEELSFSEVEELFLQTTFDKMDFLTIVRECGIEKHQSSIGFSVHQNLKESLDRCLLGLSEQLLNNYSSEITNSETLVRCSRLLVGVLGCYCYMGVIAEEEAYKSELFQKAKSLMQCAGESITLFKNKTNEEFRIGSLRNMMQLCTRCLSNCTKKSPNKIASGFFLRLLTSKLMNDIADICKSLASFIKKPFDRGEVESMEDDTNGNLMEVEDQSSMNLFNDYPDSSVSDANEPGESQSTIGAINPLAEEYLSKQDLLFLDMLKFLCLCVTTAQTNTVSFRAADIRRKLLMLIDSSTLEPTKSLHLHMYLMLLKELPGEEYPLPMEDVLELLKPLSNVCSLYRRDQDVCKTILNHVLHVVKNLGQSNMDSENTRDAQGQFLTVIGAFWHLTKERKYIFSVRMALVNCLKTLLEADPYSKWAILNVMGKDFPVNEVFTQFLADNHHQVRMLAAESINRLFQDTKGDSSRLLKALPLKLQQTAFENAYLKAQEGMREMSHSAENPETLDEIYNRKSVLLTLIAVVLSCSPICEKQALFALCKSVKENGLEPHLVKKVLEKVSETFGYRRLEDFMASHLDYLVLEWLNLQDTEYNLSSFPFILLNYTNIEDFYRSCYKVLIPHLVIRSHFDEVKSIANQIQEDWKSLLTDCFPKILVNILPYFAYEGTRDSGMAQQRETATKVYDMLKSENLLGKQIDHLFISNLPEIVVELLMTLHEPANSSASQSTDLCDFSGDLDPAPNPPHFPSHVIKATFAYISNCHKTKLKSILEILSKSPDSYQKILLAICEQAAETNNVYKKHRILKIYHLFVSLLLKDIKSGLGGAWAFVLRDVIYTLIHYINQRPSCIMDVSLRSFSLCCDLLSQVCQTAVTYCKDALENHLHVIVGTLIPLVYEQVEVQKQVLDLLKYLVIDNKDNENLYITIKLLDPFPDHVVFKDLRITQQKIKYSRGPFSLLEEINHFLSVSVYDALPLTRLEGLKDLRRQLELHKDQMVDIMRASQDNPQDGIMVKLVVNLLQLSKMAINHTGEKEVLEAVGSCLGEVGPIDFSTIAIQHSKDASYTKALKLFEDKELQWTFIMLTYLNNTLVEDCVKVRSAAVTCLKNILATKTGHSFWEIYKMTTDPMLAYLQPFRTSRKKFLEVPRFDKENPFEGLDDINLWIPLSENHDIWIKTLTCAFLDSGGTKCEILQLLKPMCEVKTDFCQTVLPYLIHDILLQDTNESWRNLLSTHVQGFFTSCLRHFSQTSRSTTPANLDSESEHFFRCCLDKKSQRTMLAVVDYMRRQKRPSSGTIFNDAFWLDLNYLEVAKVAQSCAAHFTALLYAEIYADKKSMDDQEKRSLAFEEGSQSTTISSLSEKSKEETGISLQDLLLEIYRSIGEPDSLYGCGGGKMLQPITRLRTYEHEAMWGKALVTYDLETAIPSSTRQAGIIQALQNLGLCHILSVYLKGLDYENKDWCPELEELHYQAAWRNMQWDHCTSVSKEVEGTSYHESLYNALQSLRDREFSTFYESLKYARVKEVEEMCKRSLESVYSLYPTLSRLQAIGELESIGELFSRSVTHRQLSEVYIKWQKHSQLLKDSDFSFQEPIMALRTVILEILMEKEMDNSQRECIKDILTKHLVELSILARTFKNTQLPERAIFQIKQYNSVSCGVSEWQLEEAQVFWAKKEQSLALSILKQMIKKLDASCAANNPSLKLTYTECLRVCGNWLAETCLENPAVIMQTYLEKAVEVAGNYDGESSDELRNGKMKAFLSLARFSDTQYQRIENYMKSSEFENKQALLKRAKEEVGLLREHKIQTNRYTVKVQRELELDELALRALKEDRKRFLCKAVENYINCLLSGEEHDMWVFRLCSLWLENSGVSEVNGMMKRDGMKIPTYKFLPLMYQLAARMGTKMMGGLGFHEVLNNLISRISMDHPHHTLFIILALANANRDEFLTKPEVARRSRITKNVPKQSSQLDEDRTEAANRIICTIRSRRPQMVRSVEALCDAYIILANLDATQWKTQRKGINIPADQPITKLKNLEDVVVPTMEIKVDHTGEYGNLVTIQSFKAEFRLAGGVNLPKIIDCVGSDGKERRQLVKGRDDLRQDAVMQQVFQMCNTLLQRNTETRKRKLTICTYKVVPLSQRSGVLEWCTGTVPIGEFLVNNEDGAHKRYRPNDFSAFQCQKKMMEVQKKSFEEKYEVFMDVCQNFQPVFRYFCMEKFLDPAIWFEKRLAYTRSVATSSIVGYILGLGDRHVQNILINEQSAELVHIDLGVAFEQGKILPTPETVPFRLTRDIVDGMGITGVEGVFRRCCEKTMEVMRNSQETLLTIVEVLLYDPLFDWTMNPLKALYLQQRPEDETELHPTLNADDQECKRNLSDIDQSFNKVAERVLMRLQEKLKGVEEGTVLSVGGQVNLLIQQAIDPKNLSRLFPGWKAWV

Binder	binding result [1]	binding result (FLAG-ATM (full-length))
GST-H1.2 C-terminal domain ([…] aa) (domain or fragment, also called GST-H1.2 fragment; source: E. coli BL21, purified (glutathione-Sepharose 4B)) not shown	binds	–
GST-p53 ([…]) (domain or fragment, p53, N-terminal […]; also called N-terminal GST-p53 ([…] aa) peptide; source: recombinant; GST-tagged plasmids expressed in E. coli BL21, purified (glutathione-Sepharose 4B)) not shown	–	binds
